Assay results reported in the supplement of paper PMC10338343.
± gives the standard deviation. This is a selection; strong and weak results do not stand in their true shares.

System: MIWI (PIWIL1) piRISC loaded with L1MC piRNA (30 nt)
Experiment: pre-steady-state target cleavage rate (min^-1); MIWI and MILI are mouse PIWI proteins and EfPiwi is from a freshwater sponge; tags in brackets are library labels; higher = faster piRNA-guided slicing of the target
Details: guide: L1MC piRNA 5'p-UAACUAAAUACUAUGCAAGCUGUAGGUCCU
Summary of the method: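 Cleave-'n-Seq reactions paired 0.1 nM transcribed, DNA-blocked target RNA library with 1 nM active affinity-purified piRISC holding one synthetic guide, plus or minus 500 nM GTSF1 partner protein, in HEPES–potassium acetate buffer at 33 °C for 0–8 or 0–960 min. After sequencing of uncleaved targets and normalisation to depth and weakly complementary targets, the pre-steady-state cleavage rate was taken from a burst-and-steady-state fit. Three trials were pooled, and k3 was capped at 0.0001 min^-1.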

[1] = auxiliary factor: 500 nM mouse GTSF1
[2] = auxiliary factor: none (no GTSF1)

Row | Sequence | pre-steady-state target cleavage rate [1] | pre-steady-state target cleavage rate [2]
1 | UCGACCUACAGCUUGCAUAGUAUUUCAGUUA | 0.698 ± 0.072 | 0.0311 ± 0.0095
2 | UCGAUCUACAGCUUGCAUAGUAUUUAGUUA | 1.61 ± 0.05 | 0.072 ± 0.013
3 | UCCUGGAUGAGCUUGCAAAGUAUUUACUUA | 0.194 ± 0.031 | 0.0187 ± 0.0048
4 | UGGACCUACAGCUUGCAUAGUAUUUGAGUUA | 0.658 ± 0.072 | 0.0394 ± 0.0088
5 | UGGACCUACAGCUUGCUUAGUAUUUAGAAA | 0.295 ± 0.035 | 0.00593 ± 0.0019
6 | UCCUCCUACAGCUUGCAUAGUAUUUAGAUUA | 0.342 ± 0.031 | 0.0121 ± 0.0024
7 | UGGACCUACAGCUUGCAUAGUACUUUAGUUA | 0.645 ± 0.046 | 0.0182 ± 0.0046
8 | UCCUGGAACAGCUUCCUUAGUAUUUAGUUA | 0.267 ± 0.021 | 0.00323 ± 0.0025
9 | AGGACCAUCAGCUUGCAUAGUAUUUAGAAA | 0.479 ± 0.048 | 0.017 ± 0.0049
10 | UCCUGGAUGAGCUUGCAUAGUAUUUAGUA | 0.627 ± 0.056 | 0.0139 ± 0.0034
11 | AGGACCUACACCUUGCAAAGUAUUUAGUUA | 1.19 ± 0.036 | 0.0555 ± 0.01
12 | UCCUGCUUGAGCUUGCAUAGUAUUUAGUUA | 0.707 ± 0.051 | 0.0427 ± 0.0082
13 | UCGACCUACAGCUUGCAUACUAUUUACUUA | 0.217 ± 0.025 | 0.0153 ± 0.0029
14 | UCCUGGAUCAGCUUGCUAUGUAUUUAGUUA | 0.0118 ± 0.0044 | 0.00412 ± 0.0018
15 | UCCUGCUACAGGUUGCAUAGUAUUUAGUUA | 1.03 ± 0.037 | 0.0257 ± 0.0052
16 | UCCUGCUACACCUAGCAUAGUAUUUAGUUA | 0.717 ± 0.061 | 0.00802 ± 0.0017
17 | UCCACCUACCAGCUUGCAUAGUAUUUAGUUA | 0.947 ± 0.051 | 0.0439 ± 0.0077
18 | AGGACCUAGUCCUUGCAUAGUAUUUAGAAA | 0.379 ± 0.051 | 0.00589 ± 0.0017
19 | UCCAGGUACAGCUUGCAUAGUAUUUAGUAA | 0.504 ± 0.036 | 0.0352 ± 0.0064
20 | UCCUCCUACAGCAUGCAUAGAAUUUAGUUA | 0.436 ± 0.066 | 0.00465 ± 0.0017
